The supplement of paper PMC3334620
Over roughly 33,000 sequences, “E-score (-0.5 to 0.5)” has its median near -0.043; the highest 2% begin near 0.37. This is one part of the list.

Each sequence was assayed against T1, Upc2 (UniProt Q12151) (assay: PBM E-score (8-mer binding enrichment) (E-score (-0.5 to 0.5)); higher = stronger / more preferred TF binding; most listed sequences are background and not binding sites). Conditions: protein concentration: 200 nM; construct: GST-full length.
T1 sequence: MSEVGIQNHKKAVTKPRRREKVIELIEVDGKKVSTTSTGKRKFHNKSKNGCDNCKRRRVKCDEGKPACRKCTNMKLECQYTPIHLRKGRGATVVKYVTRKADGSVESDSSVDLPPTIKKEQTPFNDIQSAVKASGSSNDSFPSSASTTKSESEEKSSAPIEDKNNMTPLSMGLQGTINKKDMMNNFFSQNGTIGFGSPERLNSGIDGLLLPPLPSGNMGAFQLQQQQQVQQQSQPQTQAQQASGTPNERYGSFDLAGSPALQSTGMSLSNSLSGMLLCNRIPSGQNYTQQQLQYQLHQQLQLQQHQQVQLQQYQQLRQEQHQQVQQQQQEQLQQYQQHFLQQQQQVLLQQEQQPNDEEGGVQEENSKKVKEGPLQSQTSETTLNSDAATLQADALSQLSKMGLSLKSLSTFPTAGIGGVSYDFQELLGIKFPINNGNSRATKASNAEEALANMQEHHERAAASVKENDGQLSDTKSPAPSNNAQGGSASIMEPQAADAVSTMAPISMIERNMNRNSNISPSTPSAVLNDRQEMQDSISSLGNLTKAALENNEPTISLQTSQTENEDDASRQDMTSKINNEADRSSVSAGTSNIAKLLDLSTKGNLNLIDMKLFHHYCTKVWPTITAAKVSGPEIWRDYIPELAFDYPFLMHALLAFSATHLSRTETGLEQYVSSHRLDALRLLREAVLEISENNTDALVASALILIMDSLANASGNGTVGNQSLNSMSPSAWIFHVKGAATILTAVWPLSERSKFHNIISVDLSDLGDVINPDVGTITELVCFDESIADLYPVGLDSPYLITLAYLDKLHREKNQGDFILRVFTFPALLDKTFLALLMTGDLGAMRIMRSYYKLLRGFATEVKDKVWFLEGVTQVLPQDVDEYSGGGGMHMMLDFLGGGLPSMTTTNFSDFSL
Procedure, shortened: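 PURExpress in vitro transcription/translation supplied GST-tagged yeast transcription factors, either full-length or DNA-binding domain. Applied at about 100-200 nM to universal all-10-mer Agilent arrays double-stranded by primer extension, the bound protein was detected with fluorescent anti-GST. E-scores, modified Wilcoxon-Mann-Whitney statistics, were given by the Universal PBM Analysis Suite to ungapped eight-base words pooled with their reverse complements after masliner normalisation.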

Sequence	PBM E-score
CCGGTGCC	-0.0464
ACCTAGCC	-0.17
AGGCTGTG	-0.00172
ATGCCATC	0.066
AACCCGGA	-0.00233
AAAGATTT	-0.0111
CATTCGCC	-0.147
CGTTATCC	0.0197
CAACTCTG	-0.0835
AACAGACC	0.0367
CTCGGATC	0.141
CCTGACCG	0.08
CGCGTAAC	0.202
ATTAAAGC	-0.0686
TCACTCCA	-0.0952
CAGCGCTC	-0.201
CGGTCAGA	-0.126
CTTCGCGA	0.161
AAAAGGGT	-0.105
TCGGATAA	0.336
TCTTATAA	0.301
ATCGCCGA	0.0596

Sequence	PBM E-score
AGTCCCCA	-0.289
ATCAGCCA	-0.122
TACGGGGA	0.36
AGGCCATC	-0.0459
AGCAGTTC	-0.0967
AAATGGAC	-0.0861
TCAGGTAA	-0.24
CGTTATAA	0.164
GTACGGAA	0.377
AGACTGTG	-0.152
ATATCCGC	0.175
AGTTGTTC	0.127
CAAAAAGG	-0.0817
CTAATGTC	-0.171
TACCCGTA	0.339
CTCCTACC	-0.241
ATATCGGA	-0.00291
CAGCCTGG	-0.215
ACCCCCCC	-0.312
ACCCCGGC	-0.191
CTCAAGTA	-0.132
AGGCCAGC	-0.0204

Sequence	PBM E-score
GATAACGC	-0.0237
CAGATACA	0.0349
CGATAACG	0.164
ACCAAAAT	0.00073
CATGCATC	-0.119
CGCTGCCA	-0.1
GTCTTTGA	-0.0423
CCACGATC	0.125
ACGTTTAT	0.313
AGCAGACG	-0.171
TAGGTACA	-0.114
CAACATCA	-0.0677
CCTGCGGA	-0.0982
GGGGGTAA	-0.285
AAGTTAGT	-0.0401
ACAGGGTA	0.0435
GGGGGGGA	-0.32
AAGTAACG	0.19
GATGAGGA	-0.0777
GGATTGAA	-0.0284
AGGCGTTC	-0.0195
ATTCGAGC	0.124

Sequence	PBM E-score
GTATGAAA	0.272
TATAGACA	0.115
CCCCTGCC	-0.17
AACAGGGT	-0.187
GAATACGA	0.439
TCACATGA	-0.249
GGGGACAA	-0.0146
CACGAGTA	0.126
AACTACTG	-0.159
ATGGATAG	-0.0756
AGTTGCGC	-0.0195
ATAGACAA	0.0543
ACAACTCA	-0.185
CCAGACGG	-0.313
CGATGCCC	0.0631
ATTGGAGA	-0.0484
CGGTGCGA	0.181
AATTGGAA	-0.165
AATCACCG	0.00219
AATAGGAA	-0.0836
